According to article PMC4336329 (PLoS ONE, 2015):
Screen size: about 310,000 compounds; about 2,200 (0.71%) showed an effect of 50% or more. The effect is printed as a negative number. The list shows a part of the results.

target: human ether-à-go-go-related gene (hERG) potassium channel (human, UniProt Q12809); experiment: primary screen, population patch clamp on CHO cells stably expressing hERG
Sequence (Q12809 whole entry, looked up): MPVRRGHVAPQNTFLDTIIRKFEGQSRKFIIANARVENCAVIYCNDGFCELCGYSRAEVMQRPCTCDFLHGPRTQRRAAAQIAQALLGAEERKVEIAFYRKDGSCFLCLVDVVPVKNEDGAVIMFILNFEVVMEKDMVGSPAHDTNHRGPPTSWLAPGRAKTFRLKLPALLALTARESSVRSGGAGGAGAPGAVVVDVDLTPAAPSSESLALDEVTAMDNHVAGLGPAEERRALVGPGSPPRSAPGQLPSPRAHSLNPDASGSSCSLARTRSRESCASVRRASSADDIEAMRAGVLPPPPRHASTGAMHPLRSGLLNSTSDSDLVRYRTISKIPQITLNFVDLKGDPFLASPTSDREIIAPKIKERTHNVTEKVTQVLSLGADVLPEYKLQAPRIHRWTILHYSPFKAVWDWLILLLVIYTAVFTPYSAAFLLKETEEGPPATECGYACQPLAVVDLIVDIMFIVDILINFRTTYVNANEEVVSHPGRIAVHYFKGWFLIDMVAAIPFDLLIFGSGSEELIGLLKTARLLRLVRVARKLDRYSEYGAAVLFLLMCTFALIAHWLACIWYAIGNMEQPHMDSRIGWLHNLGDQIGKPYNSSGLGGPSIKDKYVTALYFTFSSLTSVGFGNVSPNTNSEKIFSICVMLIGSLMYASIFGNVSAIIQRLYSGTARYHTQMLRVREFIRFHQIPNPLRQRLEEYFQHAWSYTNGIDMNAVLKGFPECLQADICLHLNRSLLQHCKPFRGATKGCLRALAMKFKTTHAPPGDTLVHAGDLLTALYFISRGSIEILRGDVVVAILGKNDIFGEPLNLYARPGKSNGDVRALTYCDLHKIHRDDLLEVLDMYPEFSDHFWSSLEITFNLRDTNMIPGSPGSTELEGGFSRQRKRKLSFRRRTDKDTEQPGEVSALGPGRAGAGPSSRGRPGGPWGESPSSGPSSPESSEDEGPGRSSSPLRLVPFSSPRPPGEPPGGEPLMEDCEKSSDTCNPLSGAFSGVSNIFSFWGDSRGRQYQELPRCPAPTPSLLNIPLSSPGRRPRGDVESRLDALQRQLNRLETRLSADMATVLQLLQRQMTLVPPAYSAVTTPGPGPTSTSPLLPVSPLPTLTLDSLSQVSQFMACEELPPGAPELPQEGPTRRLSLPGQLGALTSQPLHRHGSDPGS

Compound	hERG current change (%, negative = inhibition) at 1uM
COc1ccc(Cc2nnc(NC(=O)Cc3cccs3)s2)cc1OC	15.6%
Cc1ccc(CNC(=O)CCS(=O)(=O)c2cc(Br)cc3c2N(C(=O)C2CC2)CC3)o1	8.69%
Cn1c(SCC(N)=O)nnc1C1CCN(C(=O)NCc2ccccc2)CC1	14.4%
Cc1ccc(C)c(OCC(=O)NCCN(C)C)c1.Cl	19.1%
CCOC(=O)C1=C(c2ccccc2)NC(=O)NC1c1cc(OC)c(OC)cc1OC (centres unmarked)	13.1%
CC(C)c1ccc(C2N3CCCN23)cc1 (centres unmarked)	9.3%
Cc1cc(C(=O)Nc2ccc3c(c2)OCO3)cs1	-1.09%
Cc1cc(Sc2nnc(N)s2)c2ccccc2n1	8.39%
O=C(NC1CCCCCC1)C1CCCN(c2ncccn2)C1 (centres unmarked)	13.1%
Cc1csc2nc(CNS(=O)(=O)c3ccc(-c4ccccc4)cc3)cn12	14.2%
COc1cc(/C=C(\C#N)c2nc3ccccc3s2)ccc1OCC(=O)Nc1ccccc1	9.04%
COc1ccc2c(/C=N/NS(=O)(=O)c3ccc(C)cc3)c[nH]c2c1	5.82%
CC1(C)CC(=O)c2cnc(NC(=O)CSc3nc4ccccc4o3)nc2C1	16.4%
CCOC(=O)c1cc(C#N)c(SCC(=O)c2cc(C#N)c(SC)nc2C)nc1C	4.66%
CN(C(=O)C(C)(C)C)C1c2c(ccc3ccccc23)OCC1CO (centres unmarked)	8.62%
CCC(C(=O)Nc1cccnc1Cl)c1ccccc1 (centres unmarked)	14.2%
Cc1ccc2nsnc2c1NC(=O)CCc1ccccc1	-4.24%
O=C1C=C(O)c2cccc(O)c2C1=O	19.4%
COc1cccc(CN(CC(=O)NCC2CCCO2)C(=O)CNS(=O)(=O)c2ccccc2)c1 (centres unmarked)	4.02%
Cl.O=C(NCCN1CCCC1)c1cccc(Cl)c1	-13.1%
Cc1nn2c(COc3ccc(NC(=O)c4ccccc4Cl)cc3)nnc2c2ccccc12	4.43%
Cc1ccc(NC(=O)c2cc(Cl)ccc2[N+](=O)[O-])cc1C	9.54%
CS(=O)(=O)c1ccc(S(=O)CC(=O)Oc2ccc(Cl)cc2)c([N+](=O)[O-])c1 (centres unmarked)	13.1%

Compound	hERG current change (%, negative = inhibition) at 1uM
COC(=O)c1cc(OC)c(OC)cc1NC(=O)CSc1nnc(-c2cccnc2)n1C	-5.26%
Cc1ccc(Cn2nnc3c(=O)[nH]c(C4CCN(S(=O)(=O)c5ccc(S(=O)(=O)NC6CC6)cc5)CC4)nc32)cc1	8.19%
O=C(/C=C/c1ccc2c(c1)OCO2)c1c(O)n(CCC2=CCCCC2)c(=O)[nH]c1=O	11%
COc1ccc(CCNC(=O)c2ccc3c(c2)NC(=O)CS3)cc1OC	8.02%
CCCC[C@@H]1CNC(=O)C(=O)N1CCc1cc(C(F)(F)F)cc(C(F)(F)F)c1	-3.32%
O=C(CCNC(=O)Cn1cnc2ccccc2c1=O)NCC1COc2ccccc2O1 (centres unmarked)	6.38%
O=c1[nH]c(CSc2nc3ccccc3[nH]2)nc2c1cnn2-c1ccccc1	-1.63%
COc1ccccc1/C=C/C=N/NC(=O)CC1C(=O)NN=C1C (centres unmarked)	12.8%
CCc1ccccc1N(CC(=O)Nc1cccnc1)S(=O)(=O)c1ccccc1	10%
Cc1ccc(C)c(N2CCN(C(c3ccncc3)c3nnnn3Cc3ccccc3)CC2)c1.Cl (centres unmarked)	5.53%
CC(=O)N1CCN(C(=O)c2cc(=O)c3ccccc3o2)CC1	22%
O=C(Cn1ccccc1=O)c1cccs1	10.2%
O=C(Cc1ccc(F)cc1)Nc1ccccc1N1CCCC1	11.3%
Cc1ccc(SCCNC(=S)Nc2cc(C)ccc2C)cc1	8.45%
O=C(Nc1cccc(Cl)c1)Nc1nc(-c2ccc(Cl)cc2)cs1	11.3%
Cc1cc2oc(=O)cc(CN3CCN(C/C=C/c4ccccc4)CC3)c2cc1O	-67.8%
O=C(OCCc1ccccc1)c1cc(O)c(O)c(O)c1	21.2%
O=C1NC(=S)N/C1=C/c1cccc2ccccc12	7.77%
O=C(NCc1cccs1)c1csc2ccccc12	13.4%
O=C(COC(=O)C1CCCCC1)Nc1ccc(N2CCCCC2)cc1	7.55%
Cc1ccc(S(=O)(=O)NCc2ccc(C(=O)NCCCN3CCC(Cc4ccccc4)CC3)cc2)cc1	-52.4%
COc1ccc(N2CCN(CCNC(=O)Nc3ccc([N+](=O)[O-])cc3OC)CC2)cc1	12%
CCCCOc1ccc(C(=O)NCC(=O)N2CC=C(c3ccccc3)CC2)cc1	10.7%

Compound	hERG current change (%, negative = inhibition) at 1uM
O=C1CCC([N+](=O)[O-])C(c2ccc3c(c2)OCO3)N1 (centres unmarked)	-0.159%
CCC(=O)N1CCc2cc(S(=O)(=O)N3CCc4ccccc4C3)ccc21	6.48%
Cc1cccc(N(C(=O)Cn2nnc(-c3ccccc3F)n2)C(C(=O)NC(C)(C)C)c2ccncc2)c1 (centres unmarked)	17.7%
NC(=O)COC(=O)CNC(=O)c1sc2ccccc2c1Cl	14.2%
COCCn1cnc2c1c(=O)n(CC(=O)OCC(=O)NCC(F)(F)F)c(=O)n2Cc1ccccc1	9.9%
O=C(O)c1cc(-c2cccs2)[nH]n1	12.3%
CCCCn1c(N)c(N(C(=O)CSc2nnnn2-c2ccccc2)C2CCCC2)c(=O)[nH]c1=O	5.99%
COCCNCCCOc1ccc(Br)cc1Cl.O=C(O)C(=O)O	0.786%
Cc1ccc(/C=N/N(Cc2ccccc2)c2ccccc2)o1	7.77%
Cc1ccnc(NC2OC(=O)c3ccccc32)c1 (centres unmarked)	15.9%
COc1ccc(CCC(=O)O)cc1OC	12.9%
CCc1ccccc1NC(=O)CN1CCN(CC(=O)NCc2ccc(Cl)cc2)CC1	-1.79%
COc1ccc(CN(C(=O)/C=C/c2ccco2)C2CCS(=O)(=O)C2)cc1OC (centres unmarked)	22.5%
COc1cccc(O)c1CN1CCCC(C(=O)c2sccc2C)C1 (centres unmarked)	6.67%
CCOc1ccccc1OCCC(=O)OCC(=O)Nc1c(C)cc(C)cc1C	3.68%
CCCC(c1nnnn1CC1CCCO1)N1CCN(c2nc3ccccc3s2)CC1 (centres unmarked)	2.19%
CC1(C)Cc2c(sc3nc4n(c(=O)c23)CCC4)CO1	8.21%
O=C(O)c1cccc(NS(=O)(=O)c2cccc(C(=O)Nc3ccccc3[N+](=O)[O-])c2)c1	5.11%
CC1=C(C(=O)Nc2ccccc2)C(c2ccc(C)o2)N2C(=O)CSC2=N1 (centres unmarked)	7.8%
Cc1cc([N+](=O)[O-])c(C)cc1-c1ccc(/C=N/n2cnnc2)o1	7.86%
Cc1cc(S(=O)(=O)N2CCOCC2)ccc1F	2.03%
CCC(C)(C)NC(=O)C(c1ccc(F)cc1)N(Cc1ccco1)C(=O)CCC(=O)Nc1ccccn1 (centres unmarked)	-2.95%
COc1cc2c(cc1OC)C(COc1cc(C)cc(C)c1)N(C(C)=O)CC2 (centres unmarked)	2.4%

Compound	hERG current change (%, negative = inhibition) at 1uM
CCOC(=O)c1ccc(N2C(=O)CC(NC3CCN(C(=O)c4cccc(Cl)c4)CC3)C2=O)cc1 (centres unmarked)	-11.4%
COc1cc(/C=N/NC(=S)Nc2cccnc2)cc(OC)c1O	0.62%
Cc1ccc(-n2c3c(cc(C(=O)NCCCN4CCOCC4)c2=O)C(=O)CC(C)(C)C3)cc1	5%
COc1ccc(OC)c(Nc2nc(N)nc(CCl)n2)c1	6.57%
COc1cc(N)c(Cl)cc1C(=O)OCC(=O)c1ccc2c(c1)NC(=O)CO2	11.9%
CCOc1ccc(S(=O)(=O)NCCC(=O)NCC(c2ccc(OC)cc2)N2CCCC2)cc1 (centres unmarked)	12.3%
NC(=O)c1c(NC(=O)C2CCCO2)sc2c1CCCCC2 (centres unmarked)	11.8%
COc1ccc(NC(=O)Cn2ncn3c(cc4ccccc43)c2=O)c(OC)c1OC	15.4%
O=C(NC1CCC(O)CC1)c1ccc(-c2ccc([N+](=O)[O-])cc2)o1 (centres unmarked)	-34%
Cc1ccc(NC(=S)N/N=C2\CC3CC=CC23)c(C)c1 (centres unmarked)	14.7%
O=C(c1ccccc1Oc1ccccc1)N1CCN(c2ccccc2)CC1	-1.64%
COc1ccc(CC(=O)O/N=C(\N)c2ccc(C)cc2)cc1	5.13%
Cc1ccsc1-c1n[nH]c(=S)n1CC(C)C	11.3%
OC1CCN(c2c3c(nc4cc(-c5ccc(F)cc5)nn24)CCC3)CC1	14.7%
COc1ccc(CN(C)C(=O)CNC(=O)CNC(=O)c2ccc(Cl)cc2Cl)cc1F	-2.38%
COc1ccc(C2C(C(=O)c3ccco3)=C(O)C(=O)N2CCN2CCOCC2)cc1 (centres unmarked)	6.69%
O=C(O)CCC(=O)NCC(=O)c1ccc(F)cc1	9.05%
C=CC[N+]1(CC=C)CCOCC1.[Br-]	34.2%
CCOC(=O)C1CCCN(C(=O)c2cccc(S(=O)(=O)N3CCOCC3)c2)C1 (centres unmarked)	10%
CN(C)c1nc(NCc2ccccc2)nc(Oc2ccc(=O)[nH]n2)n1	7.5%
